# According to PubChem BioAssay AID463173 (ICCB-Longwood Screening Facility, Harvard Medical School, 2010):
# In all, about 52,000 compounds went through this assay and about 4,300 (8.3%) were called active. Cut-off read from the data, not from the text of the source: active = survival mostly below about 52% (no sharp cut-off); inactive = mostly above about 56%. This is one part of the list.
# System: DeltatarO mutant
# Test: S. aureus survival, RN4220 and DeltatarO strains – OD600, teichoic acid synthesis inhibitors, primary screen (AID 463173)
# Settings: S. aureus RN4220 wild type/DeltatarO growth, OD600, 18 h, stronger effect = lower value, screened at 18.75 µg/mL (by protocol)
row,Compound,survival
1,Cc1ccc2scc(N3CCCCC3)c(=O)c2c1,inactive: 78%
2,Cc1ccc(N2CCN(C(=O)c3c(C)oc4ncnc(N5CCOCC5)c34)CC2)c(C)c1,inactive: 94%
3,Cc1ccc(C)c(Nc2cc(C(=O)NCCCN(C)C3CCCCC3)c3ccccc3n2)c1,inactive: 78%
4,Cc1ccc(N2C(=O)CS(=O)(=O)C23C(=O)N(C)c2ccccc23)cc1F (centres undefined),inactive: 101%
5,COc1cc(NC(=O)NCC2CCN(Cc3ccc(C)cc3)CC2)cc(OC)c1OC,inactive: 126%
6,Cc1cc(N2CCCC(O)C2)n2nc(C)c(-c3ccc(F)cc3)c2n1 (centres undefined),inactive: 96%
7,Cc1ccc(CN2CCCn3nc(C(=O)NCc4cc(C)ccc4C)cc3C2=O)cc1,inactive: 70%
8,Cc1ccc(C(=O)Nc2nnc(S(=O)(=O)N3CCN(c4ccc(F)cc4)CC3)s2)cc1,inactive: 56%
9,O=[N+]([O-])c1cc(-c2nc(-c3ccccn3)no2)ccc1NCc1ccccc1,active: 39%
10,Cc1ccc(CNC(=O)c2cnc3c(-c4ccccc4)c(C)nn3c2C)o1,inactive: 95%
11,Cc1cc(C)c(NC(=O)CS(=O)CC(=O)N2CCN(c3ccccc3)CC2)c(C)c1 (centres undefined),inactive: 90%
12,Cc1ccc2ncc(C(=O)NC(C)c3ccccc3)c(=O)n2c1 (centres undefined),inactive: 97%
13,CCc1nn(CC(=O)NCCCc2ccccc2)c(=O)c2cc3c(OC)cccc3n12,inactive: 85%
14,COc1ccc(CNC(=O)c2ccc(CSc3nc4ccncc4n3Cc3ccccc3F)cc2)cc1,inactive: 62%
15,CCc1cccc(NC(=O)CSc2ncc3c(n2)-c2ccccc2N(CC)S3(=O)=O)c1,inactive: 101%
16,COc1ccc(NC(=O)C(C)n2nc(-c3cc(C)ccc3C)c3c(c2=O)CCCC3)cc1 (centres undefined),active: 38%
17,O=C(NCCc1ccccc1)C(=O)NCC(c1ccco1)S(=O)(=O)c1ccccc1 (centres undefined),inactive: 77%
18,COCCNC(=O)CSc1nc2cc3c(cc2c(=O)n1Cc1ccc(C(=O)NCCc2ccc(OC)c(OC)c2)cc1)OCO3,inactive: 88%
19,CCOc1ccc(NC(=O)CSc2nnc(-c3ccncc3)n2-c2ccccc2)cc1,inactive: 122%
20,Cn1cc(S(=O)(=O)N2CCCCC2)cc1C(=O)N1CCN(c2ccccc2F)CC1,inactive: 95%
21,COc1cc(OC)cc(C(=O)c2coc3ccc(O)c(CN4CCOCC4)c23)c1,inactive: 77%
22,COc1cccc(-c2csc(-c3c(N)c(C(=O)c4ccccc4)n4ccccc34)n2)c1,inactive: 70%
23,O=C(CSc1nc2c([nH]c3ccccc32)c(=O)n1-c1ccc(Cl)cc1)N1CCCCCC1,inactive: 76%
24,CCOC(=O)c1ccccc1NC(=O)Cn1c(=O)n(CCCC(=O)NCc2ccc3c(c2)OCO3)c(=O)c2ccccc21,inactive: 67%
